In all, about 110,000 compounds were measured (“z-score”: median about -0.1, highest 2% from about 2 on). Some of the results follow. The source made the active and inactive calls.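 The calls were made as follows: active = z-score in the third read window above 3 or below -3; inactive = the rest.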

This assay deals with Metabotropic glutamate receptor 8 (Rattus norvegicus) (UniProt P70579). In words: rat mGluR8 modulators via GIRK flux, primary screen, cell-based, thallium flux, HTS (AID 488969). As to conditions: HEK293 rat mGluR8, GIRK (G protein-gated inwardly rectifying potassium channel) thallium flux, FluoZin2; at 10 µM; stronger effect = higher value; submaximal glutamate (EC20) added with thallium.
Chain of UniProt P70579 (P70579 whole entry, looked up): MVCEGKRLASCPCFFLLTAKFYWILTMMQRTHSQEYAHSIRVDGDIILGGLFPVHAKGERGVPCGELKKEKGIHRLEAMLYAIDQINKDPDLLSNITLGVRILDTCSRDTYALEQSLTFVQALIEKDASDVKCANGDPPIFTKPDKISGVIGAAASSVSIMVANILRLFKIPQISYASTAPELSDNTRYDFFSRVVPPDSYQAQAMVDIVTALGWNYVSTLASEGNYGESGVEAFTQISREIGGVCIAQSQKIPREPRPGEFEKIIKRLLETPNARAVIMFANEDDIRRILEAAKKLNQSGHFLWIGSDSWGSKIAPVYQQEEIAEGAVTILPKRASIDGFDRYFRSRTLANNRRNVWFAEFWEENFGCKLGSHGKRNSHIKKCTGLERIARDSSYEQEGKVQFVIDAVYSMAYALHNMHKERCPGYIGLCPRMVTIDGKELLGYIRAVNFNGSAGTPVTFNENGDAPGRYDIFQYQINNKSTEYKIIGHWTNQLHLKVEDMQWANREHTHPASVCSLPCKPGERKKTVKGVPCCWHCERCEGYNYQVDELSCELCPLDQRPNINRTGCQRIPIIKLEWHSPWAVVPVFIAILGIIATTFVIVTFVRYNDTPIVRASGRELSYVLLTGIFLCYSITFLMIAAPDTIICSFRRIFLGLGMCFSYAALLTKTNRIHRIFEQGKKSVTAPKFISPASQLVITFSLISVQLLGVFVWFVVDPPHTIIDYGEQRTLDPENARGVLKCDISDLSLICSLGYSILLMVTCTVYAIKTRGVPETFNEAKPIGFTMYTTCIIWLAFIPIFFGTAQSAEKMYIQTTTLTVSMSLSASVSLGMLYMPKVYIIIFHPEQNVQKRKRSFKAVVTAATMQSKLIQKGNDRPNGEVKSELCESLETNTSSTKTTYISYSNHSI
As for `O=C(Nc1ccc2nc3ccccc3nc2c1)c1ccc(Br)cc1`, the z-score was -0.078.

Turning to `CCOC(=O)N1CCN(C(=O)CCCOc2ccccc2)CC1`, the z-score was 1.69. Next, `Cc1cc(C)n2cc(CSc3nnnn3-c3ccccc3C)nc2n1`: -0.75. Next, `CC(C)(C)OC(=O)NNC(=O)c1ccc(Cl)cc1`: -0.212; `COc1ccc2nc(NC(=O)CN3CCOCC3)sc2c1`: -0.487. The result for `CN(Cc1cc([N+](=O)[O-])c2cccnc2c1O)C1CCCCC1` reads -0.107; that for `CCOc1cc(/C=N\NC(=O)C2C(=O)NCC2c2ccccc2)ccc1OC` (centres undefined), -0.196. As for `Cc1ccc(COc2ccc(Br)cc2/C=N/O)cc1`, the z-score is -0.148. On to `O=C(NC(=S)Nc1cccc(Cl)c1N1CCCC1)c1ccc(-c2cccc([N+](=O)[O-])c2)o1`, for which the z-score is active: 4.93. `CC(C)c1ccc(/C=C/C(=O)NC2=NCCS2)cc1`: the z-score was found to be 0.00731.

Turning to `Cn1cccc1C(=O)OCc1csc(-c2ccccc2)n1`, the z-score is -0.0668. The result for `O=C(Nc1ccc(N2CCOCC2)cc1)c1cccc(S(=O)(=O)N2CCCCC2)c1` reads 0.129; that for `Cc1cccc(Nc2nc(N)nc(CN3CCC(C)CC3)n2)c1C`, 0.0689; that for `Cc1cc(N2CCCC2=O)c(N)cc1N`, -0.104. The result for `CCCCn1c(NS(=O)(=O)c2ccc(C)cc2)c(S(=O)(=O)c2ccccc2)c2nc3ccccc3nc21` reads -0.84; that for `CC(=O)Nc1ccc(/C=N/Nc2nc3ccccc3[nH]2)cc1`, -0.184; that for `COc1ccc(C2Nc3ccccc3C(=O)N2Cc2ccco2)cc1CN1C(=O)c2ccccc2C1=O` (centres undefined), -0.0741. Next, `COC(=O)NNC(=O)c1ccccc1C`: -0.103; `COc1cccc(C(=O)N(C)c2nnc(-c3ccncc3)s2)c1`: -0.208; `Cc1cccc(-c2nc(CS(=O)CC(=O)NCc3cccs3)c(C)o2)c1` (centres undefined): -0.214. In the case of `CC(C)C(=O)Nc1cccc(-c2nc3ccccc3c(=O)o2)c1`, the z-score was -1.86. Turning to `COc1ccc(/C=C/c2nnc(NC(=O)COc3cccc(C)c3)s2)cc1`, the z-score was -0.0413. Next, `Cc1c(NC(=O)CCC(=O)N2CCCCC2)c(=O)n(-c2ccccc2)n1C`: -0.244; `O=C(NCCOC12CC3CC(CC(C3)C1)C2)c1cccc(Br)c1`: -0.4; `N#CCCN1CCN(C(=S)c2ccc(-c3cc(Cl)ccc3Cl)o2)CC1`: -0.193. The result for `Cc1nc(-c2ccccc2)sc1C(=O)CSc1ccc(F)cc1` reads -0.323; that for `O=C(O)CCSc1nc2ccc(Br)cc2[nH]1`, 0.089. The result for `CC(C)(C)C(=O)Nc1ccnc(-c2cccnc2)n1` reads 0.0335; that for `Nc1nc(NCc2ccco2)nc(N2CCCCC2)c1[N+](=O)[O-]`, -0.0744; that for `CCOC(=O)c1c(NC(=O)C(=O)N/N=C/c2ccccc2OC)sc2c1CCCCC2`, 0.206. For `O=C(NCC(=O)N(Cc1ccco1)C(C(=O)NC1CCCCC1)c1cccnc1)c1ccco1` (centres undefined), the z-score came to 0.556. `CC1=C(C)CC2C(=O)N(c3cccc4ccccc34)C(=O)C2C1` (centres undefined) displayed a z-score of 0.177. The result for `Cc1cc(-c2ccc(Cl)cc2)c(C#N)c(N)n1` reads -0.315; that for `Cc1ccn(C(=O)c2cc3ccccc3oc2=O)n1`, -0.371. Next, `CCOC(=O)c1ccc(S(=O)(=O)NNC(=O)COc2ccc(C)cc2)cc1`: -0.148. Turning to `C=CCCC(=O)Nc1nc(C)c(-c2csc(Nc3ccc(Cl)cc3Cl)n2)s1`, the z-score was -0.203. Next, `CNC(=S)NNC(=O)Cc1ccc(O)cc1`: 0.306; `Cc1cccc(Nc2cc(=O)[nH]c(=O)[nH]2)c1`: -0.155; `COC(=O)Nc1c(C)n(C)n(-c2ccccc2)c1=O`: -0.00194. The result for `CCCN(CCC)Cc1c(C(=O)OCC)nnn1-c1nonc1N` reads 0.913. The molecule `Cc1ccc(-c2csc(=S)n2CC(=O)OCC(=O)NCc2ccc(F)cc2)cc1` came in with a z-score of -0.29.

In the case of `Cc1cc(C)cc(NC(=S)NC2CC3CCC(C2)N3Cc2ccco2)c1` (centres undefined), the z-score worked out at 1.02. Next, `COc1ccccc1/C=C/C=N\N1CCN(Cc2ccccc2Cl)CC1`: active: 5.52; `CC(C)NS(=O)(=O)c1ccc(OCC(=O)NCc2cccnc2)cc1`: -0.193. Next, `c1nc2sc3c(c2c2nnnn12)CCCC3`: 0.905; `O=C(CSc1nc2ccccc2[nH]1)Nc1ccc(F)c(F)c1`: -0.0142; `Cc1nc(NC(=O)CN(C)S(=O)(=O)c2ccc(Br)cc2)sc1C`: -1.12. As for `N#C/C(=C/c1ccc(N2CCOCC2)c([N+](=O)[O-])c1)C(N)=O`, the z-score was -0.068. The result for `COc1ccc(OCCCSc2ncccn2)cc1` reads 0.783. Next, `CCCCNC(=S)N/N=C/C1=CCC2CC1C2(C)C` (centres undefined): 1.99. Molecule `Cc1cccc(OCc2nc3ccccc3c(=O)n2N)c1` registered a z-score of -0.29. The result for `CN1CCN(C(=O)C2(NC(=O)NCc3ccccc3)CCCCC2)CC1` reads 1.03; that for `O=C1/C(=C\c2ccco2)CCC/C1=C\c1ccco1`, -0.207. Consider `Nc1cc(=O)[nH]c(SCc2nnnn2-c2ccc(Cl)cc2)n1`, for which the z-score is -0.375. On to `CCOC(=O)CSc1ncc(OC)c(Sc2ccc(Cl)cc2)n1`, for which the z-score was -0.173. Next, `Cc1ccc(OC(=O)c2ccccc2P(=O)(O)O)cc1`: 0.0146. Next, `O=C(Nc1cc([N+](=O)[O-])ccc1Cl)C(Sc1ccccc1)c1ccccc1` (centres undefined): -0.165; `Cc1nn(C)c(C)c1S(=O)(=O)N1CCCC(C(=O)N2CCN(c3ccc(Cl)cc3)CC2)C1` (centres undefined): 0.149. The result for `CCOC(=O)C(NC(=O)c1ccccc1)=C1CCCCC1` reads 1.21; that for `CC1CC2(NC(=O)NC2=O)C(C)CN1C` (centres undefined), -0.0766. As to `COc1ccc(OC)c(N/C(C)=C/C(=O)c2ccc(C)o2)c1`, the z-score stood at 0.0767.

In turn, `COc1ccc(NC(=O)/C(C#N)=C/C=C/c2ccco2)cc1` displayed a z-score of -0.414. Next, `CC1CCN(c2ccccc2NC(=S)NC(=O)c2cccs2)CC1`: 1.61; `C/C(=N\OC(=O)NC(C)C)c1sc(-c2ccc(Cl)cc2)nc1C`: -0.551. Next, `O=C(CCCn1c(=S)[nH]c2cc3c(cc2c1=O)OCO3)N1CCN(c2ncccn2)CC1`: 0.25.

In the case of `O=C(CC1C(=O)NC2CCCCC2N1C(=O)c1ccc(F)cc1)Nc1ccccc1` (centres undefined), the z-score is -0.175. As to `COc1ccc(-n2cnnc2SCCC#N)cc1`, the z-score was found to be 0.0723. The result for `O=C(Nc1cccc(-c2cc3ccccc3oc2=O)c1)c1ccc(Br)o1` reads -0.101; that for `Nc1ccc(C(=O)N2CCCC2)cc1`, 0.864. The result for `Cc1ccc(OCCn2cc(C(=S)N3CCCC3)c3ccccc32)cc1C` reads -0.0383; that for `O=C(Nc1ccc(N2CCCCC2)cc1)c1ccccc1`, -0.197; that for `COC(=O)c1ccc(SCc2cnc(Cl)s2)cc1`, 0.139. Next, `COC(=O)C1=NN(C(C)=O)C2(CC(=O)N(c3cccc(C)c3)C2=O)C1` (centres undefined): -1.5; `CC(C)(C)C(=O)NC(=S)Nc1cc(C(=O)O)ccc1Cl`: -0.756.

These data come from PubChem BioAssay AID488969 (Vanderbilt High Throughput Screening Facility, 2010).
